Reference: the supplement of paper PMC10338343
± gives the standard deviation. Only a part is listed here, and it is no random draw.

tested on: MIWI (PIWIL1) piRISC loaded with L1MC piRNA (30 nt); assay: pre-steady-state target cleavage rate (min^-1); MIWI and MILI are mouse PIWI proteins and EfPiwi is from a freshwater sponge; tags in brackets are library labels; higher = faster piRNA-guided slicing of the target; details: guide: L1MC piRNA 5'p-UAACUAAAUACUAUGCAAGCUGUAGGUCCU; auxiliary factor: 500 nM mouse GTSF1
Experimental: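 Cleave-'n-Seq: a library of target RNAs (target site embedded in constant flanks, ACAGCATTCCGCGTTAGTGATATCCG... 5' flank; DNA-blocked outside the site) at 0.1 nM was incubated with 1 nM active mouse MILI or MIWI piRISC (synthetic 5'-monophosphorylated piRNA guide) with or without 500 nM mouse GTSF1 at 33 °C for 1 min to 16 h. Uncleaved targets were sequenced and normalised to non-target controls, and the pooled three trials were fitted to a burst-and-steady-state model to give the pre-steady-state cleavage rate (min^-1; k3 is constrained to at most 1e-4). Sequence is the target site only; target names encode pairing extent (gX:gY) and contiguous / 1-mismatch / 2-mismatch / bulge geometry. Fits with R² ≤ 0 are excluded.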

In order of falling “pre-steady-state target cleavage rate” value:
1. AGAACCUACAGCUUGCAUAGUAUUUAGUUA  1.43 ± 0.047
2. UGGACCUUCAGCUUGCAAAGUAUUUAGUUA  1.34 ± 0.073
3. AGGUCCUACAGCAUGCAUAGUAUUUAGUUA  1.33 ± 0.062
4. AGGACCGACAGCUUGCAUAGUAUUUAGUUA  1.21 ± 0.058
5. UCGACCUACAGAUUGCAUAGUAUUUAGUUA  1.13 ± 0.059
6. AGGACCUACAGACUUGCAUAGUAUUUAGUUA  1.1 ± 0.079
7. UGGACCUACAGCUUGCAUUGUAUUUAGUUA  0.957 ± 0.049
8. UCCUCCACAGCUUGCAUAGUAUUUAGUUA  0.736 ± 0.027
9. UCGACCUACAGCUUGCAUAGUAAUUAGUAA  0.594 ± 0.044
10. UGGACCUACAGCUUGCAUUGUAUAUAGUUA  0.52 ± 0.033
11. UCCACCUAGACCUUGCAUAGUAUUUAGUUA  0.517 ± 0.038
12. UGGACCUACACCUUGCAUAGUAUUAAGUUA  0.495 ± 0.043
13. UCCUGGAACAGCUUGCAUAGUAUGUUAGUUA  0.439 ± 0.064
14. UCCUGGAUGAGCUUGGUUAGUAUUUAGUUA  0.299 ± 0.023
15. UCCUGCUACACCUUGGAUAGUAUUUAGUUA  0.292 ± 0.051
16. UCCUGGAUGAGCUUGCAUAGUAUUCUAGUUA  0.28 ± 0.036
17. UCCACCUUCAGCUUGCAUAGAAUUUAGUUA  0.277 ± 0.043
18. UCCUGGUACAGCUUGCAUAGUAUUUAGUCUA  0.0829 ± 0.026
19. UCCUGGAACUCGUUGCAUAGUAUUUAGUAA  0.071 ± 0.011
20. UCCUGGAUCAGCUUGCAUACUAUUUACAAA  0.0374 ± 0.012
21. UCCUGGAACAGCUUGCAUAGGAUUUAGUUA  0.0212 ± 0.0044

same assay, conditions: guide: L1MC piRNA 5'p-UAACUAAAUACUAUGCAAGCUGUAGGUCCU; auxiliary factor: none (no GTSF1)

In order of falling “pre-steady-state target cleavage rate” value:
1. AGGUCCUACAGCAUGCAUAGUAUUUAGUUA  0.107 ± 0.026
2. AGGACCGACAGCUUGCAUAGUAUUUAGUUA  0.0903 ± 0.017
3. AGAACCUACAGCUUGCAUAGUAUUUAGUUA  0.0851 ± 0.013
4. AGGACCUACAGACUUGCAUAGUAUUUAGUUA  0.0719 ± 0.014
5. UCCUCCACAGCUUGCAUAGUAUUUAGUUA  0.0534 ± 0.011
6. UCGACCUACAGAUUGCAUAGUAUUUAGUUA  0.0469 ± 0.0091
7. UGGACCUACAGCUUGCAUUGUAUUUAGUUA  0.038 ± 0.0095
8. UGGACCUUCAGCUUGCAAAGUAUUUAGUUA  0.0368 ± 0.0084
9. UGGACCUACACCUUGCAUAGUAUUAAGUUA  0.0264 ± 0.0055
10. UCCACCUAGACCUUGCAUAGUAUUUAGUUA  0.0242 ± 0.0044
11. UCCUGGAACAGCUUGCAUAGUAUGUUAGUUA  0.0194 ± 0.0059
12. UCCUGCUACACCUUGGAUAGUAUUUAGUUA  0.0186 ± 0.0031
13. UCGACCUACAGCUUGCAUAGUAAUUAGUAA  0.0173 ± 0.0047
14. UGGACCUACAGCUUGCAUUGUAUAUAGUUA  0.0151 ± 0.0056
15. UCCUGGAACAGCUUGCAUAGGAUUUAGUUA  0.0118 ± 0.0032
16. UCCACCUUCAGCUUGCAUAGAAUUUAGUUA  0.0115 ± 0.0024
17. UCCUGGAUGAGCUUGCAUAGUAUUCUAGUUA  0.0103 ± 0.0031
18. UCCUGGAUGAGCUUGGUUAGUAUUUAGUUA  0.00784 ± 0.0026
19. UCCUGGUACAGCUUGCAUAGUAUUUAGUCUA  0.00718 ± 0.0028
20. UCCUGGAACUCGUUGCAUAGUAUUUAGUAA  0.00318 ± 0.0021
